# This is one part of the list.
# B1: CLECb-Precomplexed (Mus musculus), P43025 (protein)
# chain: MAKNGLVLCILVVSLLLDQTDGYPSRMKARKHSKRRVKAKDDDLKSQVEKLWREVNALKEMQALQTVCLRGTKVHKKCYLASEGLKHYHEANEDCISKGGTLVVPRNSDEINALRDYGKRSLPGVNDFWLGINDMVTEGKFLDVHGFAVSFLNWDRAQPSGGKRENCVLFSQSAQGKWSDEACRSSKRYICEFIIPTRTRPLEQKLISEEDLAANDILDYKDDDDKV
# What was measured:
# Experiment in all cases: glycan array binding signal (z-score within array); higher = stronger binding
# Conditions in all cases: glycan notation: IUPAC condensed, linker removed
# [1] = molecular target: Neu5Ac(a2-3)Gal(b1-4)GlcNAc(b1-6)GalNAc
# In short: (§1)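 The Consortium for Functional Glycomics database supplied 3228 glycan arrays, of which those lacking an available protein sequence were dropped. The binding signal, a within-array Z-score, was averaged across arrays of the same protein sequence and across linkers. Negative scores can be read as non-binding.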
# [2] = molecular target: Neu5Ac(a2-3)Gal(b1-4)GlcNAc(b1-6)[Gal(b1-3)]GalNAc
# In short: as §1
# [3] = molecular target: Neu5Ac(a2-3)Gal(b1-4)GlcNAc(b1-6)[Neu5Ac(a2-3)Gal(b1-3)]GalNAc
# In short: as §1
# [4] = molecular target: Neu5Ac(a2-3)Gal(b1-4)GlcNAc6S
# In short: as §1
# [5] = molecular target: Neu5Ac(a2-3)Gal(b1-4)[Fuc(a1-3)]GlcNAc
# In short: as §1
# [6] = molecular target: Neu5Ac(a2-3)Gal(b1-4)[Fuc(a1-3)]GlcNAc(b1-2)Man
# In short: as §1
# [7] = molecular target: Neu5Ac(a2-3)Gal(b1-4)[Fuc(a1-3)]GlcNAc(b1-3)Gal
# In short: as §1
# [8] = molecular target: Neu5Ac(a2-3)Gal(b1-4)[Fuc(a1-3)]GlcNAc(b1-3)Gal(b1-4)GlcNAc
# In short: as §1
# [9] = molecular target: Neu5Ac(a2-3)Gal(b1-4)[Fuc(a1-3)]GlcNAc(b1-3)Gal(b1-4)[Fuc(a1-3)]GlcNAc(b1-3)Gal(b1-4)[Fuc(a1-3)]GlcNAc
# In short: as §1
# [10] = molecular target: Neu5Ac(a2-3)Gal(b1-4)[Fuc(a1-3)]GlcNAc(b1-3)GalNAc
# In short: as §1
# [11] = molecular target: Neu5Ac(a2-3)Gal(b1-4)[Fuc(a1-3)]GlcNAc(b1-6)[Gal(b1-3)]GalNAc
# In short: as §1
# [12] = molecular target: Neu5Ac(a2-3)Gal(b1-4)[Fuc(a1-3)]GlcNAc(b1-6)[Neu5Ac(a2-3)Gal(b1-3)]GalNAc
# In short: as §1
# [13] = molecular target: Neu5Ac(a2-3)Gal(b1-4)[Fuc(a1-3)]GlcNAc6S
# In short: as §1
# [14] = molecular target: Neu5Ac(a2-3)Gal6S(b1-4)GlcNAc
# In short: as §1
# [15] = molecular target: Neu5Ac(a2-3)Gal6S(b1-4)[Fuc(a1-3)]GlcNAc
# In short: as §1
# [16] = molecular target: Neu5Ac(a2-3)GalNAc
# In short: as §1
# [17] = molecular target: Neu5Ac(a2-3)GalNAc(b1-4)GlcNAc
# In short: as §1
# [18] = molecular target: Neu5Ac(a2-3)[GalNAc(b1-4)]Gal(b1-4)Glc
# In short: as §1
# [19] = molecular target: Neu5Ac(a2-3)[GalNAc(b1-4)]Gal(b1-4)GlcNAc
# In short: as §1
# [20] = molecular target: Neu5Ac(a2-3)[GalNAc(b1-4)]Gal(b1-4)GlcNAc(b1-3)GalNAc
# In short: as §1
# [21] = molecular target: Neu5Ac(a2-3)[Neu5Ac(a2-6)]GalNAc
# In short: as §1
# [22] = molecular target: Neu5Ac(a2-6)Gal
# In short: as §1
# [23] = molecular target: Neu5Ac(a2-6)Gal(b1-3)GlcNAc(b1-3)[Gal(b1-4)GlcNAc(b1-6)]Gal(b1-4)Glc
# In short: as §1
# [24] = molecular target: Neu5Ac(a2-6)Gal(b1-4)Glc
# In short: as §1
# [25] = molecular target: Neu5Ac(a2-6)Gal(b1-4)GlcNAc
# In short: as §1
# [26] = molecular target: Neu5Ac(a2-6)Gal(b1-4)GlcNAc(b1-2)Man
# In short: as §1
# [27] = molecular target: Neu5Ac(a2-6)Gal(b1-4)GlcNAc(b1-2)Man(a1-3)Man(b1-4)GlcNAc(b1-4)GlcNAc
# In short: as §1
# [28] = molecular target: Neu5Ac(a2-6)Gal(b1-4)GlcNAc(b1-2)Man(a1-3)[Gal(b1-4)GlcNAc(b1-2)Man(a1-6)]Man(b1-4)GlcNAc(b1-4)GlcNAc
# In short: as §1
# [29] = molecular target: Neu5Ac(a2-6)Gal(b1-4)GlcNAc(b1-2)Man(a1-3)[GlcNAc(b1-2)Man(a1-6)]Man(b1-4)GlcNAc(b1-4)GlcNAc
# In short: as §1
# [30] = molecular target: Neu5Ac(a2-6)Gal(b1-4)GlcNAc(b1-2)Man(a1-3)[GlcNAc(b1-4)][Neu5Ac(a2-6)Gal(b1-4)GlcNAc(b1-2)Man(a1-6)]Man(b1-4)GlcNAc(b1-4)GlcNAc
# In short: as §1
binder,measurement,setting,value
B1,glycan array binding signal (z-score),[1],-0.192
same,glycan array binding signal (z-score),[2],0.699
same,glycan array binding signal (z-score),[3],-0.564
same,glycan array binding signal (z-score),[4],-0.559
same,glycan array binding signal (z-score),[5],-0.551
same,glycan array binding signal (z-score),[6],-0.357
same,glycan array binding signal (z-score),[7],1.1
same,glycan array binding signal (z-score),[8],0.396
same,glycan array binding signal (z-score),[9],-0.141
same,glycan array binding signal (z-score),[10],0.48
same,glycan array binding signal (z-score),[11],0.178
same,glycan array binding signal (z-score),[12],1.07
same,glycan array binding signal (z-score),[13],-0.203
same,glycan array binding signal (z-score),[14],-0.618
same,glycan array binding signal (z-score),[15],-0.005
same,glycan array binding signal (z-score),[16],0.032
same,glycan array binding signal (z-score),[17],-0.698
same,glycan array binding signal (z-score),[18],0.078
same,glycan array binding signal (z-score),[19],-0.321
same,glycan array binding signal (z-score),[20],0.271
same,glycan array binding signal (z-score),[21],0.176
same,glycan array binding signal (z-score),[22],-0.301
same,glycan array binding signal (z-score),[23],0.55
same,glycan array binding signal (z-score),[24],-0.213
same,glycan array binding signal (z-score),[25],-0.18
same,glycan array binding signal (z-score),[26],-0.647
same,glycan array binding signal (z-score),[27],0.007
same,glycan array binding signal (z-score),[28],-0.117
same,glycan array binding signal (z-score),[29],0.046
same,glycan array binding signal (z-score),[30],0.199

# — the supplement of paper PMC8728848
